Z-score data for 111 compounds are collected here from PubChem BioAssay AID488969 (Vanderbilt High Throughput Screening Facility, 2010).

The full ranking holds about 110,000 compounds; the median of “z-score” is about -0.1, and the highest 2% start at about 2. This is one part of the list. Active and inactive are the calls of the source.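 How the source made its calls: active means z-score in the third read window above 3 or below -3; inactive means the rest.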 Residues, ends and D or L forms follow the SMILES beside them. *: point of attachment. Boc = CC(C)(C)OC(=O)*; OBn = c1ccc(CO*)cc1

For the assay, the target named is Metabotropic glutamate receptor 8 (Rattus norvegicus) (UniProt P70579). The assay is described as follows: mGluR8 Gi/Go-coupled signaling modulation – cell-based, rat, thallium flux, HTS, primary screen (AID 488969). As to conditions: HEK293 rat mGluR8, GIRK (G protein-gated inwardly rectifying potassium channel) thallium flux, FluoZin2; at 10 µM; stronger effect = higher value; submaximal glutamate (EC20) added with thallium.
UniProt P70579, sequence (P70579 whole entry, looked up): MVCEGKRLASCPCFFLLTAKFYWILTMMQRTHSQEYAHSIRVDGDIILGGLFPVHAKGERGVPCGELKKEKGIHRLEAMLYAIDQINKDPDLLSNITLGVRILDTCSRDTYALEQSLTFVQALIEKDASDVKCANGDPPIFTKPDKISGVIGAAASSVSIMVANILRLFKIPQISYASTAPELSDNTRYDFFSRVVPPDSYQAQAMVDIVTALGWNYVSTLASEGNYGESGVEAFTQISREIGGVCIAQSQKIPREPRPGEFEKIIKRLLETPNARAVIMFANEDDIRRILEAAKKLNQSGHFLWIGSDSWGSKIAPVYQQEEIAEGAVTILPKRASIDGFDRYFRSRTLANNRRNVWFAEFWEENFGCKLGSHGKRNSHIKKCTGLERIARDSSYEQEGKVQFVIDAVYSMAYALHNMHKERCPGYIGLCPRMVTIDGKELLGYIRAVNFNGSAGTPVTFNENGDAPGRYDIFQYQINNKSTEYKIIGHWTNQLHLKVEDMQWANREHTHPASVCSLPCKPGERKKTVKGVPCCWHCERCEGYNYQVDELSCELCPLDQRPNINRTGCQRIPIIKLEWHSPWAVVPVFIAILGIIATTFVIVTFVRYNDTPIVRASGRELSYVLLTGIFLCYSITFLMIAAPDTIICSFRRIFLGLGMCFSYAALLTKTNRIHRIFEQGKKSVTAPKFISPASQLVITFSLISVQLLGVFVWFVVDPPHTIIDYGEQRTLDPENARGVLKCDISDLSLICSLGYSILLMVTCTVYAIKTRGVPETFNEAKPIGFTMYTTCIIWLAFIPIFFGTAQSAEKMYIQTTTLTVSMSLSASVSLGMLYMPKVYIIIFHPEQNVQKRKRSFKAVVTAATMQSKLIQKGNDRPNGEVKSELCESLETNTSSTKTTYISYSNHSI
`COc1cccc(N(CC(=O)NCCSc2ccccc2)S(C)(=O)=O)c1` had a z-score of 0.502.

Compound `COCC(=O)Nc1nnc(Cc2ccc(OC)cc2)s1` yielded a z-score of 0.0794.

Consider `Cn1c(N)c(C(=O)COC(=O)CCc2c[nH]c3ccccc23)c(=O)n(C)c1=O`, for which the z-score was -0.412.

In turn, `N/C(=N\OC(=O)Cc1ccccc1[N+](=O)[O-])c1ccncc1` gave a z-score of 0.641.

The compound `O=C(Oc1ccc2c(c1)OCO2)c1ccc(Br)c(S(=O)(=O)N2CCOCC2)c1` showed a z-score of 0.026.

Compound `C1=C(c2ccccc2)CCN(c2nc3ccccc3n3cnnc23)C1` registered a z-score of 0.0688.

Compound `N#C/C(=C\c1ccco1)Sc1nc2ccccc2s1` returned a z-score of -0.232.

In turn, `N=c1ccn(Cc2ccccc2Cl)cc1` displayed a z-score of -0.281.

The compound `CC(C)(C)NC(=O)c1cc(F)c(F)cc1Cl` came in with a z-score of -0.03.

`Cn1c(SCc2ccccc2)nnc1C1CCCNC1` (stereo unspecified) displayed a z-score of 0.254.

Compound `CCOC(=O)CN(Cc1sccc1C)C(=O)Nc1ccc(OCC)cc1` registered a z-score of -0.0739.

The compound `O=c1oc2ccccc2c(N2CCCCC2)c1CN1CCCCC1` returned a z-score of -0.762.

Turning to `COc1cccc(C2=NO[C@@H]3C(=O)N(c4ccc5c(c4)OCCO5)C(=O)[C@H]23)c1OC`, the z-score is -0.153.

`Cc1ccc(CN2CN(S(=O)(=O)c3cccs3)c3nc4ccccc4nc32)cc1` came in with a z-score of 0.149.

Compound `Cc1ccc(/C=N/NC(=O)CN(Cc2ccccc2)S(=O)(=O)c2ccc3c(c2)OCCO3)cc1` yielded a z-score of -0.0995.

Compound `NS(=O)(=O)c1ccc(CCNC(=O)[C@@H]2CCCN2S(=O)(=O)c2ccccc2F)cc1` showed a z-score of 0.119.

On to `CC1=NNC(=O)/C1=C\c1cn(-c2ccccc2)nc1-c1ccc(Cl)cc1`, for which the z-score is -0.29.

The compound `O=C(Nn1c(SCc2ccccc2F)nc2ccsc2c1=O)c1ccccc1` showed a z-score of -0.0125.

`Cc1oc2ccc(OCc3ccccc3F)cc2c1C(=O)O` registered a z-score of -0.186.

In turn, `Cc1ccccc1NC(=O)c1cc(C(=O)c2cc(Cl)ccc2O)cn(-c2ccccc2C)c1=O` returned a z-score of -0.378.

`CCCCCCC1CC(CSC(=N)N)OC1=O` (stereo unspecified) came in with a z-score of 0.116.

In turn, `Cc1c(S(=O)(=O)N2CCOCC2)c(=O)n(C)c(=O)n1C` registered a z-score of 0.0852.

For `CC(=O)c1cc2c(cc1NC(=O)CSc1nnc(C)s1)OCO2`, the z-score was -0.677.

Consider `O=C(OCC(=O)c1cccs1)c1cccc(C(=O)OCC(=O)c2cccs2)n1`, for which the z-score was -0.78.

Regarding `Cc1cc(N2CCOCC2)n2nc(C)c(-c3ccccc3)c2n1`, the z-score is active: 4.01.

`COc1ccc(C(=O)/C=C(\C)Nc2ccc(NC(C)=O)cc2)cc1` registered a z-score of -0.108.

As for `CCOc1cc(S(=O)(=O)NCc2ccccn2)c(C)cc1C`, the z-score came to 0.164.

In the case of `N#Cc1ccc(CSc2nnc(-c3cccs3)n2-c2ccccc2)cc1`, the z-score was -1.82.

`CC1=CC(C)(C)N2C(=O)C3(C(C#N)=C(N)OC4=C3C(=O)CC(C)(C)C4)c3cc(C)cc1c32` (stereo unspecified) showed a z-score of 0.474.

In turn, `CC(C)CNC(=S)N(Cc1ccco1)Cc1cc2cc3c(cc2[nH]c1=O)OCCO3` came in with a z-score of -0.396.

`CCOc1ccc(N=CC2=C(O)CC(c3ccco3)CC2=O)cc1` (stereo unspecified) gave a z-score of -0.187.

`CC12CCC(C(=O)Nc3cc(Cl)ccc3Cl)(C/C1=N\O)C2(C)C` (stereo unspecified) displayed a z-score of -0.269.

On to `COc1ccc(/C(C)=N/NC(=O)CCC(=O)Nc2ccc(Cl)cc2Cl)c(OC)c1`, for which the z-score was -0.503.

The compound `Cc1ccc(-c2csc(N/N=C/C=C/c3ccccc3)n2)cc1` yielded a z-score of -0.0496.

`O=C(/C=C/c1ccc2c(c1)OCO2)Nc1nc(-c2ccc(F)cc2F)cs1` returned a z-score of -0.00891.

Turning to `CN(C)C(=O)CSc1cccc2cccnc12`, the z-score was active: 7.

In turn, `O=C(Cc1nc(-c2ccc(Br)s2)cs1)NCCN1CCOCC1` showed a z-score of -0.0716.

The compound `COc1ccc(S(=O)(=O)N[C@@H](Cc2ccc(Cl)cc2)C(=O)N2CC[C@@]3(O)CCCC[C@H]3C2)cc1` came in with a z-score of -0.0964.

Take `COC(=O)c1ccc(CSc2nc3ccc(Cl)cc3[nH]2)o1`: the z-score is -0.626.

`C=CCN1C(=O)CSC1=Nc1cccc(O)c1` came in with a z-score of -0.17.

In turn, `CCOC(=O)CCCNC(=O)c1cncc(O)c1` registered a z-score of -0.275.

For the compound `COc1ccc(C2C(C(=O)c3sc(C)nc3C)=C(O)C(=O)N2CCCn2ccnc2)cc1OC` (stereo unspecified), the z-score was -0.122.

As to `COc1ccc(Cc2nc(-c3ccc(Br)o3)no2)cc1OC`, the z-score was -0.0992.

`COc1ccc(CN(CC(=O)NC2CCCC2)C(=O)CCC(=O)Nc2cc(C)on2)cc1` came in with a z-score of -0.363.

`C(=N\c1nc2ccccc2n1CCN1CCOCC1)/c1cccs1` gave a z-score of -0.0657.

`O=C1CCNc2cc3ccccc3cc21` registered a z-score of 0.58.

On to `Cc1ccccc1CNC(=O)c1ccccc1C`, for which the z-score was found to be 0.221.

`O=C1CC(=O)C(n2cncn2)C(c2c(F)cccc2Cl)C1` (stereo unspecified) showed a z-score of -0.214.

With `COc1ccccc1NC(=O)c1ccc(NS(=O)(=O)c2c(C)noc2C)cc1`, the z-score was 0.641.

With `CCOC(=O)NC1(C(F)(F)F)N=C(c2ccccc2)NC1=O` (stereo unspecified), the z-score is 0.265.

As to `Cc1ccccc1-c1nc2ccccc2c(=O)n1C1CCS(=O)(=O)C1` (stereo unspecified), the z-score was -0.314.

Compound `CCC(C)(C)C1CCC(=NNC(=O)c2ccoc2C)CC1` (stereo unspecified) had a z-score of -0.259.

The compound `C=CCn1c(Sc2nc(C)cs2)nc2c1c(=O)[nH]c(=O)n2C` displayed a z-score of -0.168.

With `COc1ccc(-c2nc3ccccc3n2Cc2ccccc2)cc1`, the z-score is -0.359.

Take `C=CCn1c(-c2ccc(C)cc2)nc2ccccc21`: the z-score was -1.52.

`CCC1=NN(C(=O)c2ccc(C)cc2)C(O)(c2ccc(Br)cc2)C1` (stereo unspecified) registered a z-score of 0.175.

`O=P(O)(c1ccccc1)c1ccccc1O` returned a z-score of 0.401.

The compound `Cc1ccccc1NS(=O)(=O)c1ccc(C)c(C(N)=O)c1` gave a z-score of 0.0473.

For the compound `O=C(NCCN1CCOCC1)c1ccc(-c2ccccc2)cc1`, the z-score came to 0.258.

`CCOC(=O)CN(C(=O)CSc1nnc(-c2cccc(OC)c2)o1)c1ccc(F)cc1` yielded a z-score of 0.478.

In turn, `OC(COC(c1ccc(F)cc1)c1ccc(F)cc1)CN1CCc2ccccc2C1` (stereo unspecified) returned a z-score of 0.611.

`O=C(c1ccc2c(c1)OCO2)N1CCCC1` returned a z-score of -0.125.

For the compound `COc1ccc(NC(=O)/C(C#N)=C/c2ccc3c(c2)n(C)c(=O)n3C)cc1`, the z-score turned out to be 0.148.

`CCN(Cc1ccccc1)C(c1ccc(C)cc1)c1nnnn1C(C)(C)CC` (stereo unspecified) showed a z-score of -0.13.

Compound `Cc1ccc(S(=O)(=O)N2CCCN(S(=O)(=O)C3CCS(=O)(=O)C3)CC2)cc1` (stereo unspecified) returned a z-score of 0.0702.

For `COC(=O)c1cc(F)c(-n2cncn2)c(F)c1`, the z-score was -0.0938.

As for `O=C(Nc1nc(-c2ccc(Oc3ccccc3)cc2)cs1)C1=COCCO1`, the z-score is 0.272.

In the case of `Cc1ccc(-c2noc(C3CCCN(C(=O)c4ccccc4)C3)n2)o1` (stereo unspecified), the z-score was -0.175.

`CCc1ccc(NC(=O)c2ccc(OC)c([N+](=O)[O-])c2)cc1` yielded a z-score of -0.449.

With `Cc1ccc(Cn2ncc3c(NCCCN4CCOCC4)ncnc32)cc1`, the z-score is -0.227.

In turn, `CCNC(=O)CC1C(=O)N(c2ccc(F)cc2)C(=O)N1CCC(C)C` (stereo unspecified) returned a z-score of 0.39.

Take `COc1ccc2oc(=Nc3ccccc3)c(-c3nc4ccccc4[nH]3)cc2c1`: the z-score is -0.114.

In the case of `O=C(Nc1ccc(-c2nc3c(ccc4ccccc43)o2)cc1)c1ccco1`, the z-score was -0.502.

`Cc1nc2ccc(NC(=O)N3CCC(c4ccccc4)C3)cc2nc1C` (stereo unspecified) came in with a z-score of -1.73.

On to `Cc1nc(-c2ccccc2)nc2[nH]ccc(=O)c12`, for which the z-score was -1.14.

Regarding `O=C(Nc1cccn2ncnc12)c1ccc(Cl)cc1`, the z-score was -0.254.

Turning to `CS(=O)(=O)Nc1ccccc1C(=O)c1ccccc1`, the z-score was found to be 0.313.

With `Cc1ccc(NC(=O)c2ccc(Cn3cc(Br)cn3)o2)cc1`, the z-score is -1.07.

Consider `CCOc1ccc(CCNC(=O)C2CCN(S(=O)(=O)CC)CC2)cc1OCC`, for which the z-score was found to be 0.236.

With `O=C(Nc1nnc(C2=COCCO2)o1)c1ccc(Cl)cc1`, the z-score was 0.709.

As for `NC(=O)c1nsc(C(=O)N(CC(=O)NCc2ccc(F)cc2)Cc2ccco2)c1N`, the z-score was -0.42.

Compound `C1CCC(C23CC4CC(CC(C4)C2)C3)NC1` (stereo unspecified) gave a z-score of 0.138.

The compound `N#CCCn1c(SCC(=O)NCC2CCCO2)nc2ccccc21` (stereo unspecified) gave a z-score of -0.368.

For `CCCCOc1ccc(CNC(=O)NS(=O)(=O)c2ccc(OCC(C)C)cc2)cc1`, the z-score was -0.522.

Turning to `CCc1nc(SCC(=O)N2CC(=O)Nc3ccccc32)c2c(C)c(C)sc2n1`, the z-score is 1.93.

The compound `CCOC(=O)c1ccccc1NC(=O)c1cccc2c1C(=O)N(C1CCN(C(=O)OCC)CC1)C2` returned a z-score of -2.77.

With `CCn1nnnc1SCC(=O)Nc1ccc2c(c1)OCO2`, the z-score was -0.744.

As for `COc1ccc(NC2=NCCC2)cc1`, the z-score stood at 0.235.

`CCCCCOc1ccc(/C=c2\sc3nc(=O)c(-c4ccccc4)nn3c2=O)cc1OC` yielded a z-score of 0.106.

As to `Clc1cccc2sc(N3CCOCC3)nc12`, the z-score turned out to be 0.0232.

In turn, `O=C(Cc1cccs1)Nc1nnc(Cc2ccccc2)s1` registered a z-score of -0.0843.

As for `N#C/C(=C/c1ccc(Sc2nc3ccccc3[nH]2)o1)c1ccccc1F`, the z-score was -1.09.

`Cn1nc(C(=O)NCc2ccccn2)c2ccccc2c1=O` yielded a z-score of -0.406.

With `CSc1ccc(CN2CCC(O)CC2)cc1`, the z-score came out at 0.279.

In turn, `COC(=O)Nc1ccc(S(=O)(=O)N(C)C)cc1` gave a z-score of -0.233.

`CC(=O)NS(=O)(=O)c1cccnc1Nc1cccc(Cl)c1` registered a z-score of -0.444.

Compound `Cc1ccc(-n2nnnc2-c2ccco2)cc1` yielded a z-score of -0.111.

For the compound `O=C(/C=C/c1ccco1)Nc1ccc(-c2nc3ccccc3[nH]2)cc1`, the z-score is -0.0801.

`O=C(CN(C(=O)CCNC(=O)c1ccco1)c1ccccc1)NC1CCCC1` displayed a z-score of -0.108.

Turning to `c1ccc(CSc2snnc2-c2ccccc2)cc1`, the z-score was -0.267.

In turn, `CCC(C)NC(=O)Cn1c(=O)n(CCCCC(=O)NCc2ccco2)c(=O)c2ccccc21` (stereo unspecified) gave a z-score of -0.434.

`CC(C)CC(NC(=O)C(NC(=O)OC(C)(C)C)C(C)C)C(=O)NC(CCC(=O)OCc1ccccc1)C(N)=O` (stereo not drawn) (Boc-Val-Leu-Glu(OBn)-NH2; configuration not given here) displayed a z-score of -0.102.

The compound `COc1ccc(-c2ncccc2OC(=O)C23CC4CC(CC(C4)C2)C3)cc1OC` returned a z-score of -0.518.

Compound `COc1cccc2cc3c(=O)n(-c4ccccc4)nc-3oc12` displayed a z-score of -0.396.

Consider `COC(=O)c1sccc1NC(=O)Cc1ccc(OC)c(OC)c1`, for which the z-score was -0.312.

Compound `Cn1c(=N)c(S(=O)(=O)c2ccc(Cl)cc2)cc2c(=O)n3ccccc3nc21` gave a z-score of -0.0791.

`Cc1nc(C)c(C(=O)Nc2nc3c(C)cccc3s2)o1` returned a z-score of -1.08.

With `CCOC(=O)c1c(NCc2ccc3c(c2)OCO3)c2ccccc2[nH]c1=O`, the z-score was -0.213.

With `O=C(CCn1c(=S)[nH]c2cc3c(cc2c1=O)OCO3)N1CCc2ccccc2C1`, the z-score was 0.83.

`Cc1ccc(C(=O)NC(=S)Nc2ccccc2N2CCCC2)cc1[N+](=O)[O-]` showed a z-score of 0.134.

As to `Cc1ccc(Cl)cc1NC(=O)c1cnn2c1NC(c1ccco1)CC2C(F)(F)F` (stereo unspecified), the z-score was -0.148.
